# Results: the RNAGym collection of RNA variant scans (doi:10.1073/pnas.2313332121)
# Variants at the background level are over-represented here.
# B1: TPR 5TU (parent)
# chain: GGAUCUUCUCGAUCUAACAAAAAAGACAAAUCUGCCACAAAGCUUGAGAGCAUCUUCGGAUGCAGAGGCGGCAGCCUUCGGUGGCGCGAUAGCGCCAACGUUCUCAACUAUGACACGCAAAACGCGUGCUCCGUUGAAUGGAGUUUAUCAUG
# Variants of: B1
# Test: polymerase ribozyme fitness, log enrichment relative to wild type (log ratio); higher = more active; in vitro selection for triplet polymerase activity
# Procedure, shortened: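 Libraries of mutants in each subunit of a heterodimeric triplet polymerase ribozyme were generated by PCR and transcribed. In triplicate, each went through one in vitro selection round: annealing with biotinylated primer, partner subunit and triplets; frozen incubation at −7 °C; gel excision of extended constructs; streptavidin-bead capture; RT-PCR. Fitness, taken from Illumina sequencing of input and output libraries, is the logarithm of a genotype's enrichment over wild-type enrichment, averaged across replicates with inverse-variance weights. The logarithm is base 2, and genotypes needed ≥10 input reads and ≥1 read per output to be kept.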
row,Variant,polymerase ribozyme fitness (log ratio)
1,GGAUCUUCUCGAUCUAACAAAAAAGUCAAAUCUGCCACAAAGCUUGGGAGCAACUUCGGAUGCAGAGGCGGCCGCCUUCGGUGGCGCGAUAACGCCAACGUUCUCAACUAUGACACGCAAAACGCGUGCUCCGUUGAAUGGAGUUUAUCAUG [A26U A47G U53A A73C G92A],≤ -4.2
2,GGAUCUUCUCGAUCUAACAAAAAAGUCAAAUCUGCCACAAAGCUUGUGAGCAUCUUCGGAUGCAGAGCCGGCAGCCUUCGGUGGCCCGAUAGCGCCAACGUUCUCAACUAUGUCACGCAAAGCGCGUGCUCCGUUGAAUGGAGUUUAUCAUG [A26U A47U G68C G86C A113U A122G],≤ -4.2
3,GGAUCUUCUCGAUCUAACAAAAAAGUCAAAUCUGCCACAAAGCUUGAGCGUAUCUUCGGAUGCAGAGGCGGCAGCCUUCGGUGGCGCGAUUGCGCCAACGUUCUCAACUAUGACACGCAAAACGCGUACUCCGUUGAAUGGAGUUUAUCAUG [A26U A49C C51U A91U G128A],≤ -4.2
4,GGAUCUUCUCGAUCUAACAAAAAAGUCAAAUCUGCCACAAAGCUUGAGCGCAGCUUCGGAUGCAGAGGCGGCAGGCUUCGGUGCCGCGAUAGCGCCAACGUUCUCAACUAUGUCACGCAAAACGUGUGCUCCGUUGAAUGGAGGUUAUCAUG [A26U A49C U53G C75G G84C A113U C125U U144G],≤ -4.2
5,GGAUCUUCUCGAUCUAACAAAAAAGUCAAAUCUGCCACAAAGCUUGAGCGCAGCUUCGGAUGCAGAGACGGCAGCCUUCGGUGGCGCGAUAGCGCAAACGUUCUCAACUAUGACACGCAAAACGCGUGCUCCGUUGAAUGGAGUUUAUCAUG [A26U A49C U53G G68A C96A],≤ -4.2
6,GGAUCUUCUCGAUCUAACAAAAAAGUCAAAUCUGCCACAAAGCUUGAGGACAUCAUCGGAUGCAGAGGCGGCAGCCUUCGGUGGCGCGAUAGCGCCAACGUUCUCAACUAUGACACGCAAAACGCGUGCUCCGUUCAAUGGAGUUUAUCAUG [A26U A49G G50A U55A G136C],≤ -4.2
7,GGAUCUUCUCGAUCUAACAAAAAAGUCAAAUCUGCCACAAAGCUUGAGAGCCUCUUCGGAUGCAGAAGCGGCAGCCUUCGGUGGCGCGAUAGCCCCAACGUUCUCAACUAUGAAACGCAAUACGCGUGCUCCGUUGAAUCGAGUUUAUCAUG [A26U A52C G67A G94C C114A A121U G140C],≤ -4.2
8,GGAUCUUCUCGAUCUAACAAAAAAGUCAAAUCUGCCACAAAGCUUGAGAGCCUCUUCGGAUGCAGAGUCGGCAGCCUUCGGUGGGGCGAUAGCGCCAACGUUCUCAACUAUGACACGCAAAACGCGUGCUCCGUUGAAUGGAGUUUAUCAUG [A26U A52C G68U C85G],≤ -4.2
9,GGAUCUUCUCGAUCUAACAAAAAAGUCAAAUCUGCCACAAAGCUUGAGAGCCUCUUCGGAUGCAGAGGCGGCAGCCUUCGGUAGCGCGAUAGCGCCAACGUUCUAAACUAUGACACGCAAAACGCGUGCUCCGUUGAAUGGAGUUUAUCAUG [A26U A52C G83A C105A],≤ -4.2
10,GGAUCUUCUCGAUCUAACAAAAAAGUCAAAUCUGCCACAAAGCUUGAGAGCCUCUUCGGAUGCAGAGGCGGCAGCCUUCGGUGGCGCCAUAGCGCCAACGUUCUCAACUAUGACACGCAAAACGCGUGCUCCGUCGAAUGGAGUUUAUCAUG [A26U A52C G88C U135C],≤ -4.2
11,GGAUCUUCUCGAUCUAACAAAAAAGUCAAAUCUGCCACAAAGCUUGAGAGCCUCUUCGGAUGCAGAGGCGGCAGCCUUCGGCGGCGCGAUAGCGCCAACGUUCUUAACUAUGACACGCAAAACGCGUGCUCCGUUGAAUGGAGUUUAUCAUG [A26U A52C U82C C105U],≤ -4.2
12,GGAUCUUCUCGAUCUAACAAAAAAGUCAAAUCUGCCACAAAGCUUGAGAGCUUCUUCGGAUGCAGAGGCGGCAGCCUUCGGUGGCGCGAUAGCGCCAACGUUCUCAACUAUGACACGCAAAACGCGUGCUCCGUAGAAUGGAGUUUAUCAUG [A26U A52U U135A],-2.83
13,GGAUCUUCUCGAUCUAACAAAAAAGUCAAAUCUGCCACAAAGCUUGAGAGCAUCUUCGGGUGCAGAGGCGGCAGCUUUCGGUGGUGGGAUAGCGCCAACGUUCUCAACUAUGACACGCAAAACGCGUGCUCCGUUGAAUCGAGUUUAUCAUG [A26U A60G C76U C85U C87G G140C],≤ -4.2
14,GGAUCUUCUCGAUCUAACAAAAAAGUCAAAUCUGCCACAAAGCUUGAGAGCAUCUUCGGUUGCAGAGGCGGCACCCUUCGUUGGGGCGAUAACGCCAACGUUCUCAACGAUGACACGCAAAACGCGUGCUCCUUUGAAUGGAGUUUAUCUUG [A26U A60U G74C G81U C85G G92A U109G G133U A150U],≤ -4.2
15,GGAUCUUCUCGAUCUAACAAAAAAGUCAAAUCUGCCACAAAGCUUGAGAGCAUCUUCGGAUGCAGAGGCGGCGGCCUUCGGUGUCGCGAUAACGCCAACGUUCUCUACUAUGACACUCAAAACGCGUGCUCCGUUGAAUGGAGUUUAUCAUG [A26U A73G G84U G92A A106U G117U],≤ -4.2
16,GGAUCUUCUCGAUCUAACAAAAAAGUCAAAUCUGCCACAAAGCUUGAGAGCAUCUUCGGAUGCAGAGGCGGCUGCCUUCGGUGGCGCGAUAGUGCCAACGUUCUCAACUAUGACACGCAAAACGCGUGCUCCGUUGAAUGGAGUUUAUCAUG [A26U A73U C93U],≤ -4.2
17,GGAUCUUCUCGAUCUAACAAAAAAGUCAAAUCUGCCACAAAGCUUGAGAGCAUCUUCGGAUGCAGAGGCGGCUUCCUUCGGUGGCGCGAUAGCGCAAACGUUCUCAACUAUGACACGCAAAACGCGUGCUCCGUUGAAUGGAGUUUAUCAUG [A26U A73U G74U C96A],≤ -4.2
18,GGAUCUUCUCGAUCUAACAAAAAAGUCAAAUCUGCCACAAAGCUUGAGAGCAUCUUCGGAUGCAGAGGCGGCUGCCUUCGGUGGCGCAAUAGCGCCAACGUUCUCACCUAUGAGACGCAAAACGCGUGCUCCGUUGAAUGGAGUUUAUCAUG [A26U A73U G88A A107C C114G],≤ -4.2
19,GGAUCUUCUCGAUCUAACAAAAAAGUCAAAUCUGCCACAAAGCUUGAGAGCAUCUUCGGAUGCAGAGGCGGCAGCCUUCGGUGGCGCGCUAGCGUCAACGUUCACAGCUAUGACACGCAAAACGCGUGCUCCGUUGAAUGGAGUUUAUCAUG [A26U A89C C95U U104A A107G],≤ -4.2
